Laboratory results reported in PubChem BioAssay AID1963576 (National Center for Advancing Translational Sciences (NCATS), 2024).
The whole screen tested about 46,000 compounds, of which about 60 (0.1%) were called active. Another 3% or so got no clear call; they are omitted. The call rests on the fitted dose curve; in most records, active means well fitted inhibition curve with a large enough effect; inconclusive means small, poorly fitted or top-dose-only effect; inactive means no such curve, though single readings can be large or run the other way. Some of the results follow.

Assay: Primary qHTS assay for Inhibitors of ovarian cancer metastasis using an organotypic tumor microenvironment (TME) model. Further: nearly all actives have a fitted effect of over 65% in size.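 On activity change, negative = inhibition: plate controls were DMSO wells for no effect and tomatine positive control wells for full effect.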
Details: SKOV3ip1-GFP adhesion/invasion on 3D omental model, fluorescence; series mostly up to 45.8 µM; activity change, negative = inhibition: at the top concentration
Outline: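 A 3D layer of primary human omental fibroblasts, mesothelial cells, fibronectin and collagen I, grown 48 hr, received SKOV3ip1-GFP cells in serum-free medium plus compounds at 0.36-46 umol/L. After 2 hr RT and 16 hr 37 C, fixed adherent GFP cells were counted; normalized to DMSO and tomatine.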

Activity change, negative = inhibition, inactive:
Cc1ccc(CCNC(=O)c2ccc3c(=O)n(-c4ccccc4)c(=O)[nH]c3c2)cc1 6.78%
CCC(C)NC(=O)CN1C(=O)COc2ccc(S(=O)(=O)N3CCOCC3)cc21 (stereo unspecified) -0.615%
COc1cccc(N2CC(NC(=O)/C=C\c3ccc(OC)c(OC)c3)CC2=O)c1 (stereo unspecified) -6.76%
CCCN(C(=O)Cn1ncc2c([nH]c3ccc(C)cc32)c1=O)c1ccccc1C 1.59%
O=C(Nc1ccc(Cl)cc1)N1CCC(c2ccccc2)C1 (stereo unspecified) -2.04%
COc1ccc(NC(=O)CCS(=O)(=O)c2nc(-c3ccc4c(c3)OCO4)cc(C(F)(F)F)n2)c(OC)c1 2.35%
COc1ccc(CCNC(=O)c2cc(S(=O)(=O)N3CCCC(C)C3)cn2C)cc1OC (stereo unspecified) 63.2%
O=C(O)c1ccc2c(c1)N(Cc1ccc(F)cc1Cl)C(=O)c1ccccc1S2 -29.3%
CCN(C(=O)c1cnc(N2CCOCC2)c2ccccc12)c1cc(C)ccc1C -9%
Cc1cc(NC(=O)C(C)(C)Oc2ccc(Cl)cc2)cc(-c2nc3ncccc3o2)c1O 5.05%
COc1cccc(CNc2nc3c(-c4cccc(C)c4)nnn3c3ccccc23)c1 -3.03%
O=C(OCc1cc(=O)n2nc(-c3cccs3)sc2n1)c1ccccc1Br -7.96%
CC(=O)Nc1ccc(NC(=O)CCC(=O)c2ccc(C)cc2)cc1 3.18%
Nc1nc(=O)n([C@H]2CSC(CO)O2)cc1F (stereo partly specified) 3.72%
CC(C)Nc1ccc(-c2nc(-c3ccccn3)no2)cc1[N+](=O)[O-] -1.22%
Cc1cc(Cl)ccc1OCC(=O)N(Cc1ccc(N(C)C)cc1)CC1CCCO1 (stereo unspecified) -7.09%
CCc1ccc(NC(=O)c2sc3nc(C)c(Cl)c(C)c3c2NC(=O)c2ccccc2)cc1 -6.84%
Cc1nn(-c2ccccc2)c2nc(C3CC3)cc(C(=O)NCc3ccccc3Cl)c12 7.07%
O=C(C1CC1)N1CCN(c2nc3c(F)cc(F)cc3s2)CC1 -9.02%
CCN(CC)c1nc(-c2ccccc2Cl)c2cc(Br)ccc2n1 -4.17%
CNc1oc(-c2ccc(COc3ccc(C)cc3)o2)nc1C#N 7.35%
CCOc1ccccc1NC(=O)c1cnc(N2CCOCC2)c2ccccc12 -7.92%
COC(=O)c1cc(NC(=O)c2ccc3c(c2)N(Cc2cccc(Cl)c2)C(=O)c2ccccc2S3=O)cc(C(=O)OC)c1 (stereo unspecified) -8.41%
CCCCCN1C(C(=O)c2ccccc2)=C(NC(C)=O)c2ccccc2S1(=O)=O -11%
Cc1cc(C)cc(C(=O)Nc2nnc3n2CCS3)c1 -14.5%
CCOC(=O)c1ccc(NC(=O)CSc2nccn2Cc2ccc(OC)cc2)cc1 2.76%
CCCn1c2ccccc2c2cnn(CC(=O)Nc3ccc(C)cc3Br)c(=O)c21 -1.74%
CCOc1ccccc1C(=O)Nc1cc(-c2ccc(C)cc2)no1 0.713%
Cc1ccc(C(=O)Nc2ccc(C(=O)OCc3cc(=O)n4c5c(sc4n3)CCCC5)cc2)cc1 3.12%
COc1ccccc1Nc1ncc(C(=O)Nc2ccc(OC)c(OC)c2)c2ccccc12 18.5%
CCc1cccc(C)c1NC(=O)C1=C(C)C(=O)OC12CCC(C)CC2 (stereo unspecified) 8.36%
CCCOc1ccc(C2=NC(c3ccc(F)cc3)=Nc3ccc(OC)cc3N2)cc1 1.02%
COC(=O)c1ccc(Cn2nnc3c(=O)[nH]c(C4CCCN(S(=O)(=O)c5ccccc5)C4)nc32)cc1 (stereo unspecified) 3.2%
Cn1cc(C(=O)NCCc2ccc(Cl)cc2)c(=O)c2cc(S(=O)(=O)N3CCCCC3)ccc21 -1.04%
COc1ccccc1CNC(=O)c1ccc2c(c1)CCN2S(=O)(=O)c1ccc(Cl)cc1 2.69%
COc1ccc2nc(N(Cc3cccnc3)C(=O)COc3ccccc3)sc2c1 3.27%
COc1ccc(NC(=O)NCC2CCN(Cc3ccccc3F)CC2)c(OC)c1 -7.35%
Cc1ccc(Nc2ncnc3c2nc2n3CCCC2)c(Br)c1 -5.92%
Nc1nccc(-c2ccc3noc(-c4ccc(Cl)cc4)c3c2)n1 -12.8%
COc1ccc(N2CCN(C(=O)Cn3nc(Cc4cccnc4)c4ccccc4c3=O)CC2)cc1 -3.81%
CC(=O)Nc1ccc(NS(=O)(=O)c2ccc3[nH]c4c(c3c2)CCCCC4)cc1 -10%
CCOc1ccc(C(=O)NCC(c2ccc3c(c2)OCO3)N2CCN(c3ccc(F)cc3)CC2)cc1 (stereo unspecified) 0.831%
COc1ccc(CCN2C(=O)N(c3ccc(F)cc3)C(=O)C2CC(=O)Nc2ccc(OC)cc2)cc1 (stereo unspecified) 3.45%
CCc1ccccc1NC(=O)N1CCC2(CC1)Oc1ccccc1C(=O)N2Cc1ccccc1F 8.32%
CCCC(CCC)C(=O)Nc1cccc(-c2nc3cccnc3s2)c1 -18.7%
CC(=O)N1CCc2cc(S(=O)(=O)NC(CC(C)C)C(=O)NCCc3ccccc3)ccc21 (stereo unspecified) 6.9%
COc1ccc(Cl)cc1NC(=O)CCN1C(=O)c2ccccc2Sc2ncccc21 -7.46%
CCOC(=O)c1ccccc1NC(=O)CSc1cc(C)[nH]c(=O)n1 -4.62%
COc1cc(OC)c(NC(=O)N2CCN3CCCCC3C2)cc1Cl (stereo unspecified) -2.98%
CC(C)(C)c1cc(C(C)(C)C)c2oc(=O)c(-c3nc4ccc(C(=O)O)cc4[nH]3)cc2c1 -8.69%
Cc1ccc(CN2CCN(C3CCN(C(=O)c4ccc(C)cc4)CC3)C(=O)C2=O)cc1 3.62%
COc1ccc(OC)c(Nc2ncc3c(n2)CCN(Cc2cc(OC)c(OC)c(OC)c2)C3)c1 9.08%
COc1cc(-c2nnc(SCC(=O)Oc3ccccc3)o2)cc(OC)c1OC -0.531%
Cc1cc(C)c2c(=O)cc(CSc3nnc(-c4ccccc4)n3C)[nH]c2c1 -4.35%
Cc1ccc(Nc2nc3ccccc3c3nnc(C)n23)cc1Cl -4.78%
CC(C)C(=O)N1c2nc(C(C)C)nn2C2(CCCCC2)[C@@H]2CCCC[C@@H]21 7.66%
COc1ccc(Cl)cc1NC(=O)c1ncn(-c2ccccc2)n1 -1.49%
CCOc1ccc(CCNC(=O)c2ccc(CS(=O)(=O)c3ccccc3C)o2)cc1OCC 4.61%
COC(=O)c1ccc(Cn2c(SCC(=O)NCc3ccccc3)nc3ccccc32)cc1 -2.66%
CSCCC(NS(=O)(=O)c1cccs1)C(=O)Nc1ccc(C)c(Cl)c1 (stereo unspecified) 0.175%
CCOC(=O)c1cnc2ccc(C(=O)OC)cc2c1Nc1ccc(N2CCOCC2)cc1 1.31%
COc1cc(CN(C(=O)c2ccc(OC(C)C)cc2)C2CCS(=O)(=O)C2)cc(OC)c1OC (stereo unspecified) -14.3%
CCc1ccccc1NC(=O)c1sc2nc3n(c(=O)c2c1C)CCC3 2.69%
Cc1ccc(C)c(Cn2c(=O)n(Cc3ccco3)c(=O)c3oc4ccccc4c32)c1 -1.53%
CCc1ccc(NC(=O)Cn2c(=O)n(-c3ccccc3)c(=O)c3ccc(C(=O)NCc4ccc5c(c4)OCO5)cc32)cc1 -2.39%
CC(=O)c1cccc(NC(=O)CN2C(=O)c3cccnc3Sc3ccccc32)c1 -0.355%
CN(C)c1cc2c(cc1NC(=O)c1ccc(F)cc1)n(C)c(=O)n2C -3.35%
COc1cccc(Cn2c(C)c(CNCc3ccccc3Cl)c(C(=O)O)c2C)c1 9.03%
O=C(NCCCc1nc2ccccc2n1Cc1ccccc1)C1CCCCC1 6.27%
Cc1ccccc1OCc1ccc(-c2nc(C#N)c(N3CCN(c4ccccc4)CC3)o2)o1 -8.68%
CNC(=O)C1CCN(Cc2cc3ccccc3n2Cc2cccc(C)c2)CC1 0.646%
Cc1cccc(-c2nnn3c2nc(NCc2ccccc2)c2ccccc23)c1 -3.03%
CCc1ccc(-c2cc(C)no2)cc1S(=O)(=O)Nc1ccc(C)cn1 -9.72%
Cc1ccc(-c2cn3c(n2)sc2cc(C(=O)NCc4cccs4)ccc23)c(C)c1 -5.89%

outcome, inactive:
CCOc1ccccc1NC(=O)c1c(NCc2sccc2C)sc2c1CCC(C)C2 (stereo unspecified)
Cc1cc(-c2ccc(S(=O)(=O)Nc3ccc(Cl)cc3C)cc2)on1
CC(CNC(=O)CCCn1c(=O)c2cccn2c2ccccc21)c1ccccc1 (stereo unspecified)
CCOc1ccc(-c2nnc(SCC(=O)NCCc3ccccc3)nc2-c2ccc(OCC)cc2)cc1
CCOc1ccccc1NC(=O)c1ccc2c(Cl)c3c(nc2c1)CCCC3
COc1ccc(C)cc1NC(=O)CCNS(=O)(=O)c1cccc2nonc12
COc1ccc(OCc2nc3c4c(-c5ccc(OC)cc5)c(-c5ccc(OC)cc5)oc4ncn3n2)cc1
O=C(CSc1ncc2c(n1)-c1cc(Cl)ccc1N(Cc1ccccc1F)S2(=O)=O)Nc1cccc(C(F)(F)F)c1
CC(=O)c1cccc(NC(=O)c2c(C)nn(-c3ccc(F)cc3)c2-n2cccc2)c1
Cc1cc2ccccc2n2c(SCC(=O)Nc3cccc(C(F)(F)F)c3)nnc12
Cc1cccc(S(=O)Cc2ccc(C(=O)NC3CCCCCC3)o2)c1 (stereo unspecified)
O=S(=O)(c1ccc(-c2cnc(C3CC3)o2)cc1)N1CCN(c2cccc(Cl)c2)CC1
Cc1c(-c2ccccc2)n(-c2ccccc2O)c2nc3c(c(=O)n(C)c(=O)n3C)n12
Cc1ccc2c(c1)c(=O)c(S(=O)(=O)c1ccc(C)c(C)c1)cn2CC(=O)Nc1ccccc1
O=C(c1ccc2c(c1)N(Cc1ccccc1)C(=O)c1ccccc1S2=O)N1CCC(Cc2ccccc2)CC1 (stereo unspecified)
COC(=O)c1cc(S(=O)(=O)N2CCN(c3ccc(F)cc3)CC2)cn1C
COc1ccccc1CNC(=O)c1cnc2sc(N3CCOCC3)nn2c1=O
CC1CCN(Cc2c(O)ccc3c(=O)c(-c4ccc(Cl)cc4)c(C(F)(F)F)oc23)CC1
COc1ccc(OC)c(NC(=O)Cc2c(C)n(C(=O)c3ccc(Cl)cc3)c3ccc(OC)cc23)c1
CC(=O)c1ccc(NC(=O)CSc2nnc(NC(=O)Nc3ccccc3)s2)cc1
CCOc1ccc(CNC(=O)c2ccc(NC(=O)N3CCSc4ncccc43)cc2)cc1OC
CC(C)CCNC(=O)C1CCN(S(=O)(=O)c2cccc3nsnc23)CC1
